# Source: paper PMC4336329 (PLoS ONE, 2015)
# In all, about 310,000 compounds went through this assay and about 14,000 (4.5%) showed an effect of 50% or more. The effect is printed as a negative number. The list shows a part of the results.
# Target: human ether-à-go-go-related gene (hERG) potassium channel (human, UniProt Q12809)
# Assay: primary screen, population patch clamp on CHO cells stably expressing hERG
# 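Also: peak tail current of the secondary pulse compared with the same well before compound.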
# human ether-à-go-go-related gene (hERG) potassium channel, sequence (Q12809 whole entry, looked up): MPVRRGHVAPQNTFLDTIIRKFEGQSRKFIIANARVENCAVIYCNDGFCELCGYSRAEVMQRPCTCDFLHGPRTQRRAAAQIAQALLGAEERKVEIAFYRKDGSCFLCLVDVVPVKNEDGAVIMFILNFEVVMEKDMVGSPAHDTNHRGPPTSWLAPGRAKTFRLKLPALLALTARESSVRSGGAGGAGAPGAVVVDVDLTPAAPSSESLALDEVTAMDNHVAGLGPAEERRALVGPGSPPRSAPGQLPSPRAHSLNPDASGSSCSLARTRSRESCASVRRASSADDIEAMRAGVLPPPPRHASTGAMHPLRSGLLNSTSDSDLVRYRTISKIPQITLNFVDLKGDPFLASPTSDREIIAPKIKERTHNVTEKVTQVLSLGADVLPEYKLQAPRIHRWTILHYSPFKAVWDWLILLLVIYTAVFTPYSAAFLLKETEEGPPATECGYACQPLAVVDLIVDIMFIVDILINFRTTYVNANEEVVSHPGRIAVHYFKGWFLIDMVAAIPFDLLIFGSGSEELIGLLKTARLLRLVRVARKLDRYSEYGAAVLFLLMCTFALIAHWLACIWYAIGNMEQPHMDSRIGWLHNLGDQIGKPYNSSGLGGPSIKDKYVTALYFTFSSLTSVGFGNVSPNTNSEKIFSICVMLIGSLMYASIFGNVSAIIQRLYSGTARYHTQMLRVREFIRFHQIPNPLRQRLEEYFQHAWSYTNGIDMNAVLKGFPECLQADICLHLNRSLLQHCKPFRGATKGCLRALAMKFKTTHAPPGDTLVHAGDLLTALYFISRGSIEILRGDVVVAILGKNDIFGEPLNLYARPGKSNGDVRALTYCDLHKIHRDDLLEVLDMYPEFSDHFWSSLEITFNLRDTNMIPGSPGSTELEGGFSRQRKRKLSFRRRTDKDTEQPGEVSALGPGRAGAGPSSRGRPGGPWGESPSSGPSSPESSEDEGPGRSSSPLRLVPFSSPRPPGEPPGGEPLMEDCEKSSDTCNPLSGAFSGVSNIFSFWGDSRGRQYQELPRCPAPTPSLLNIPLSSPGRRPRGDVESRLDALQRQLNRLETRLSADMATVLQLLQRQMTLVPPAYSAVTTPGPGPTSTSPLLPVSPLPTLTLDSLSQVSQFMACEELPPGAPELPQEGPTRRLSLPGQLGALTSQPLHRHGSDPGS
row,SMILES,"hERG current change (%, negative = inhibition) at 10uM [%]"
1,O=c1ccn(Cc2ccccc2)cc1,13.3
2,COc1ccccc1N1CCN(C(=O)c2cn(-c3ccccc3)nc2-c2cccnc2)CC1,-50.2
3,COC(=O)c1nc(N)sc1-c1ccc(Cl)c(Cl)c1,-4.08
4,COc1ccc(CCNC(=O)CSc2nc(C)nc3sccc23)cc1OC,-2.67
5,Cc1cc(SCC(=O)Nc2cccc(S(N)(=O)=O)c2)c(C)cc1Br,30.8
6,COc1ccc(Br)c(C(=O)N2CCN(S(=O)(=O)c3cccs3)CC2)c1,-9.75
7,CCCn1c(N)c(C(=O)CSc2nc(C)cs2)c(=O)[nH]c1=O,-23.3
8,CC(C)n1nnnc1SCC(=O)Nc1ccccc1F,4.86
9,Cn1c(Cn2nnc3ccccc32)nnc1SCC(=O)c1ccc(F)cc1,-14.2
10,N#CCCNS(=O)(=O)c1ccc(C(=O)OCC(=O)Nc2ccc3c(c2)OCO3)cc1,3.84
11,CCOc1cc(C(=O)Nc2ccc(C)cc2C)ccc1OCC(=O)N1CCCCC1,-6.48
12,Cc1cccc(NC(=O)C2CCN(S(=O)(=O)c3ccc4c(c3)OCCO4)CC2)n1,-42.4
13,Cc1ccc(CNC(=O)CN2C(=O)NC(C)(c3cccc(Br)c3)C2=O)cc1 (stereo not shown),3.24
14,CCOc1ccccc1C(=O)NCC(=O)NCCc1ccc(S(N)(=O)=O)cc1,21.5
15,O=C(/C=C/c1cccc([N+](=O)[O-])c1)NCCSCc1c(Cl)cccc1Cl,-11.9
16,COc1ccccc1C(=O)NCCC(=O)NCC(c1ccco1)N1CCCC1 (stereo not shown),13.7
17,COc1cc([N+](=O)[O-])ccc1NC(=O)Cc1ccc(F)cc1,0.277
18,COc1ccc(NS(=O)(=O)c2ccc(O)c(C(=O)OCC(=O)NC(C)C3CC4CCC3C4)c2)cc1 (stereo not shown),5.43
19,O=S(=O)(c1cccc(Cl)c1)N1CCCC1,6.2
20,O=S(=O)(Nc1nc2ccccc2nc1Nc1ccc2c(c1)OCCO2)c1cccs1,0.546
21,CC(C)c1nc(SCC(=O)Nc2nccs2)c2ccccc2n1,13.7
22,CCC(C)/C(C)=N/NC(=O)C1COc2ccccc2O1 (stereo not shown),2.58
23,COCCNC(=O)c1cc2oc3ccccc3c2n1C,4.53
24,CCn1c2nc(SCCN3CCOCC3)nnc2c2cc(C)cc(C)c21,-95.3
25,COc1ccc(NC(=O)C2CSC3c4ccccc4C(=O)N23)cc1 (stereo not shown),-6.44
